# Measured values from PMC6919601, “Identification of Plasmodium dipeptidyl aminopeptidase allosteric inhibitors by high throughput screening” (PLoS ONE, 2019).
# Out of some 110,000 compounds screened, about 230 (0.21%) showed an effect of 50% or more. Some of the results follow.
# Biological target: DPAP1 (Plasmodium falciparum, UniProt Q8IIJ9)
# Test: primary screen, percent inhibition; read by cleavage of a fluorogenic dipeptide substrate; higher = more effect of the substance
# Parameters: species or system P. falciparum D10 trophozoite lysates; single well
# 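Further: 30 min substrate incubation versus DMSO and 10 µM JCP410 controls.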
# Sequence of DPAP1 (Q8IIJ9 whole entry, looked up): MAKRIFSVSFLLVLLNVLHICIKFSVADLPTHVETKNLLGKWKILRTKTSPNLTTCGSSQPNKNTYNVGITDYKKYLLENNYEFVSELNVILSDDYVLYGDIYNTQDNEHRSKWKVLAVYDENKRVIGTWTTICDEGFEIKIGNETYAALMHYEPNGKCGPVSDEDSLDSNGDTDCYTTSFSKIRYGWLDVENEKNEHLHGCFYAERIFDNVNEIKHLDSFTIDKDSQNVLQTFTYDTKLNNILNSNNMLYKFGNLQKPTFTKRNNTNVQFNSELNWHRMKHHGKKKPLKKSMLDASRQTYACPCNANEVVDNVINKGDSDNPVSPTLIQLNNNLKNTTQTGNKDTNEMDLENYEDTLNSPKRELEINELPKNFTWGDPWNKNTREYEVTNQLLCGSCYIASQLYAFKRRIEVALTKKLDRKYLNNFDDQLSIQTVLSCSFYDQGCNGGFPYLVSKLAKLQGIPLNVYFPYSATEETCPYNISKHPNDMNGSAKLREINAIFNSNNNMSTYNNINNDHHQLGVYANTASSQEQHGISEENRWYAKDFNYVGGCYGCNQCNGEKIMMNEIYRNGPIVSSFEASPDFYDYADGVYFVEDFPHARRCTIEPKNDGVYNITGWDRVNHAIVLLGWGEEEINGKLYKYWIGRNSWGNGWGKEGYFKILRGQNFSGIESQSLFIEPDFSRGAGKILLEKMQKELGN
row,SMILES,% Inhibition @ 10 uM [%]
1,CCc1nnc(NC(=O)c2cc3c(s2)-c2ccc(Cl)cc2SC3)s1,0.953
2,COc1ccc(N2C(=O)c3cc(Cl)c(Cl)cc3C2=O)cc1,1.52
3,CCCCNC(=O)C(=O)Nc1cc(C)ccc1C,-3.57
4,CCOc1ccc(NC(=O)Cc2ccccc2)cc1,-0.268
5,O=C(NCCCn1ccnc1)/C(=C\c1cccnc1)NC(=O)c1ccccc1F,11.2
6,COc1ccccc1[C@@H](C)C[C@H](NC(=O)c1ccc(-c2c(Cl)cccc2Cl)nc1)C(=O)NCC#N,1.61
7,CCC(=O)N(CCN(Cc1ccccc1)C(=O)CC)Cc1ccccc1,-1.06
8,CC(C)(C)NC(=O)CN(Cc1ccccc1)S(=O)(=O)c1ccccc1,-3.84
9,N#C/C(=C\c1cc2c(cc1Cl)OCO2)c1nn(-c2ccccc2)c(N)c1C#N,13.2
10,CSc1ncc(Cl)c(C(=O)NCc2ccccc2)n1,-2.85
11,CCC(=O)NCc1cc(-c2nn(C)c(=O)c3ccccc23)ccc1C,-2.98
12,NS(=O)(=O)c1cc(O)c2c(S(N)(=O)=O)cccc2c1,-3.77
13,O=C(c1ccc(Br)o1)N1CCN(c2cccc(C(F)(F)F)c2)CC1,0.331
14,O=C1CCCN2N=C(SCc3ccc(F)cc3)SC2=N1,4.65
15,CCOC(=O)N1CCC(c2cc(O)n3ncc(C(=O)OC)c3n2)CC1,-2.83
16,CCOC(=O)C1=C(C)N=c2s/c(=C\c3c[nH]c4ccccc34)c(=O)n2C1c1ccc(Cl)cc1 (centres unmarked),3.01
17,CCOc1ccccc1C(=O)Nc1ccccc1C(F)(F)F,-4.59
18,CC1CC(C)CN(Cc2nc3c(c(=O)n(C)c(=O)n3C)n2Cc2ccccc2)C1 (centres unmarked),-2.29
19,Cc1ccc(C(C)C)c(OCC(=O)Nc2ccccc2C)c1,-4.06
20,Cc1cc(C)nc(SCC(=O)c2cccs2)n1,0.587
21,Cc1cc(C)c2nc3c(nc2c1)C(=O)c1ccccc1C3=O,-1.94
22,CN(C)S(=O)(=O)Oc1cccc2cccnc12,-1.06
23,Cc1ccc(C2=NS(=O)(=O)N(C)C(C(=O)N3C(C)CC(C)CC3C)=C2)cc1 (centres unmarked),-1.06
24,Nc1nnc(SCC(=O)n2c3c(c4ccccc42)CCCC3)s1,12
25,Cc1oc(-c2ccc(Cl)cc2)nc1CSCC(=O)NCCCSC1CCCCC1,-2.85
26,CCCn1c(NCc2cc(C)ccc2O)nc2ccccc21,-2.87

row,SMILES,% Inhibition @ 10 uM [%]
1,COc1ccc(S(=O)(=O)N2CCC(C(=O)O)CC2)cc1C(=O)O,3.06
2,COc1ccccc1C1CN(c2ccc(Br)cc2)N=C1c1cccs1 (centres unmarked),1.04
3,CNC(=O)c1cc2c(n(-c3ccccc3)c1=O)CC(C)(C)CC2=O,5
4,Nc1c(C(=O)NCc2ccc(F)cc2)sc2nc3c(cc12)N1CCC3CC1,-0.0678
5,O=C(C1CC(=O)N(C2CCCC2)C1)N1CCC(Cc2ccccc2)CC1 (centres unmarked),3.79
6,O=C(Nc1sc2c(c1C(=O)NC1CCS(=O)(=O)C1)CCCC2)c1ccc(Cl)cc1Cl (centres unmarked),-1.89
7,CN(C)CCNC(=O)CNC(=O)C1CCCCC1,-5.14
8,CN(c1ccc(C(=O)N2CCCCC2)cc1)S(C)(=O)=O,-7.83
9,O=c1c2ccccc2nc2cccc(-c3nc(O)c4ccccc4n3)n12,5.31
10,Nc1sc2c(c1C(=O)O)CCCC2,5.39
11,CC(C)(C)C1CCC(OC(=O)CCC(=O)NCc2ccccc2)CC1 (centres unmarked),-7.42
12,CC(C)C(C)(O)C#CCN1CCCCC1 (centres unmarked),0.247
13,Cc1ccc(S(=O)(=O)c2nnn3c2nc(N2CCN(C)CC2)c2sccc23)cc1,-5.57
14,c1ccc(-n2nnnc2SCCN2CCCCC2)cc1,-8.11
15,Cc1ncn(C23CC4CC(CC(C4)C2)C3)n1,-0.13
16,CC1CCc2nc(NC(=O)CN3CCN(c4ccc(F)cc4)CC3)sc2C1 (centres unmarked),-3.43
17,Cc1cc(-c2ccc(C)c(S(=O)(=O)NCC(C)c3ccccc3)c2)on1 (centres unmarked),1.32
18,Cn1cccc1Cc1nnc(SCC(=O)NC2CCCC2)n1-c1ccc(Cl)cc1,0.44
19,CCn1c2ccccc2c2cc(CN(C)Cc3ccccc3)ccc21,-2.34
20,Cn1c(=O)c2ncn(CC(=O)Nc3ccc(Br)cc3)c2n(C)c1=O,15.8
21,COC(=O)c1c(NC(=O)C2CC2)sc(C(=O)Nc2ccccc2OC)c1C,-1.82
22,Clc1ccccc1-c1nnc2c3cnn(-c4ccccc4)c3ncn12,-3.96
23,CCOc1ccc(CCNc2nc3ccc(Cl)cc3n3cnnc23)cc1OCC,2.76
24,Cc1ccc([N+](=O)[O-])cc1NC1OC(C)C(O)C(O)C1O (centres unmarked),-1.96
25,CCNC(=O)/C(C#N)=C/c1c(Oc2ccccc2C)nc2c(C)cccn2c1=O,3.63
26,CC(=O)N(C)c1ccc(NC(=O)CCc2ccccc2)cc1,2.44

row,SMILES,% Inhibition @ 10 uM [%]
1,Cc1cc(/C=C2/NC(=O)N(Cc3ccccc3F)C2=O)c(C)n1Cc1ccccc1,-5.44
2,Cc1ccc(OCCCCN2CCCCC2)cc1,-4.08
3,COc1cc(C2C3=C(CCCC3=O)OC3=C2C(=O)CCC3)cc(Br)c1O,0.605
4,COC(=O)Nc1nc2cc(-c3nnc(O)c4ccccc34)ccc2[nH]1,1.9
5,CCN(CC)C(=O)CSc1nnc2c(n1)[nH]c1ccccc12,0.878
6,COc1cc2c(cc1OC)C(c1ccc(Cl)c(Cl)c1)N(C)CC2 (centres unmarked),-6.12
7,CCOC(=O)c1c(C)[nH]c(C)c1S(=O)(=O)N1CCC(C)CC1,-1.61
8,CCc1ccc(C2C3=C(O)CCCC3=NC(C)=C2C(=O)OC)cc1 (centres unmarked),-4.41
9,Clc1cccc(CN2CCc3c([nH]c4ccccc34)C2)c1,-1.38
10,CCC(C(=O)NCCc1ccco1)n1nc(C)c2c(C)n(-c3ccccc3)nc2c1=O (centres unmarked),-8.97
11,Cc1ccc(NC(=O)CN(c2ccc(F)cc2)S(=O)(=O)c2ccccc2)cc1C,1.65
12,CCc1c(C)sc(NC(=O)C2CCCCC2C(=O)O)c1C(N)=O (centres unmarked),3.27
13,COc1ccc(CCNC(=O)C2CC(c3ccc(F)cc3)=NO2)cc1OC (centres unmarked),-2.16
14,COc1cc(C(=O)Nc2ccc(C)c(C)c2)ccc1OC(F)F,-3.24
15,CC(O)CNC(=O)c1ccc(-c2nn(C)c(=O)c3ccccc23)cc1 (centres unmarked),-3.23
16,COc1ccc(C(=O)Nc2cc(C(N)=O)cc(C(N)=O)c2)cc1,-4.72
17,Cc1c(CCNC(=O)c2cc(S(=O)(=O)N(C)C)c(Cl)cc2Cl)c2ccccc2n1C,1.03
18,CCOC(=O)C1CCCN(Cc2c(F)cccc2Cl)C1 (centres unmarked),6.32
19,CC(=O)Nc1cccc(/N=C/c2c(C)nn(-c3c(Cl)cc(Cl)cc3Cl)c2O)c1,7.1
20,Cc1ccc(Cn2c(=O)c3c(nc4n3CCN4Cc3ccccc3)n(C)c2=O)cc1,0.274
21,Cc1cc(NC(=O)CSc2nc3ccc(Br)cc3c3nc4ccccc4n23)no1,-1.68
22,O=C(Nc1ccc(NC(=O)c2ccc(Cl)cc2Cl)cc1)c1ccccc1O,1.59
23,CCOC(=O)N1CCc2c(sc3nc(SC)nc(SC)c23)C1,4.39
24,COCCNC(=O)CSc1[nH]c(-c2ccc(F)cc2)nc1-c1ccc(C)cc1,3.48
25,COc1ccc(CCNCc2c(C(=O)O)c(C)n(Cc3ccccc3)c2C)c(OC)c1OC,-1.92
26,COc1ccc(CN2CCN(Cc3ccco3)CC2)c(OC)c1,-9.65

row,SMILES,% Inhibition @ 10 uM [%]
1,Cc1ccccc1CSCC(=O)NCc1ccc(Cl)c(Cl)c1,5.99
2,Clc1ncnc2c1oc1ccc(Br)cc12,-6.86
3,CCOC(=O)c1cc(-c2ccccc2)sc1N,-2.48
4,O=C(CSc1nnc(-c2ccccc2)o1)c1cc2ccccc2o1,2.72
5,COc1cc(Br)cc(/C=C2/NC(=O)NC2=O)c1O,-4.93
6,OCCc1c[nH]c2ccc(OCc3ccccc3)cc12,-6.52
7,NC(=O)NC(c1ccccc1)c1cccnc1 (centres unmarked),3.82
8,Cc1ccc2c(CNCc3ccccc3Cl)c(C(=O)O)n(Cc3ccc(F)cc3Cl)c2c1,3.64
9,COc1ccc(N(CC(=O)N2CCN(c3cccc(Cl)c3)CC2)S(C)(=O)=O)cc1Cl,4.31
10,COCCCNC(=O)c1nnc(Cc2c(F)cccc2Cl)o1,4.41
11,Cc1ccc(C)c(C(=O)CSc2nc(C)cc(C)n2)c1,-2.17
12,CCOc1ccc(C(=O)C2=C(O)C(=O)N(Cc3cccnc3)C2c2ccccc2F)cc1 (centres unmarked),-4.93
13,CCN(C(=O)c1ccco1)c1nc(-c2ccccc2)cs1,72.9
14,CN1CCN(C(=O)c2ccc(N(Cc3ccccc3Cl)S(C)(=O)=O)cc2)CC1,6.7
15,O=C(NCc1ccco1)c1ccc(C(=O)NCc2ccco2)nc1,3.48
16,O=C(CSc1nc2cccnc2[nH]1)NC1CCCCCC1,0.895
17,CCOc1cc(C2C3=C(CCCC3=O)OC3=C2C(=O)CCC3)c(Br)cc1O,-2.98
18,CCOc1ccc(OCc2ccc(C(=O)NCC3CCCO3)o2)cc1 (centres unmarked),5.66
19,CC1CCN(c2nc3ccc(C(=O)NC(C)c4ccc5c(c4)OCCO5)cc3s2)CC1 (centres unmarked),4.22
20,O=C(C1=NOC2C1CC1C3C=CC(C3)C12)c1ccccc1 (centres unmarked),2.65
21,COc1cccc(CN2CNc3c(c(=O)n(C)c(=O)n3C)C2)c1,-2.88
22,COc1ccc(CCN(C)C(C)Cc2ccc(F)cc2)cc1OC (centres unmarked),4.68
23,CN(CC(=O)NCc1ccccc1Cl)S(=O)(=O)c1ccc2[nH]c3c(c2c1)CCCC3,1.97
